# A structure can be active in one record and inactive in another.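 Interpretation: 100, growth as untreated; towards 0, rising growth inhibition; 0, no net growth; 0 to -100, cell death. Compounds scoring below 10 were considered active.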 The source holds more than one record for some entries. This list holds those alone. There may be further records. These are repeated runs of one drug, at its own concentration, as given; each value is one run. Signs of the kind (2×) give the number of equal values in this list.
# How the values were obtained:
# SK-MEL-5 melanoma = experiment: NCI-60 one-dose screen, 48 h (100 = growth as untreated, 0 = no growth, -100 = all killed); details: 2.5 mM
# UACC-62 melanoma = experiment: as above; details: 2.5 mM
structure (smiles),measurement,setting,value
O=c1[nH]cc(F)c(=O)[nH]1,growth,SK-MEL-5 melanoma; runs of 1992,"active: -37, -60.2, -29.8, -56, -65.3, -73.6, -40.9, -60, -14.4, -66.1 (2×), -68.7, -43.4, 7.3, 8.08, 0.995, -70.8, -66.2, 7.8, -51.5 (2×), 5.23, -45.4, -31.4, -89, -66.9, -41.5, -50, 1.2, -26.6, -27.3 (2×), -74.3, -71.2, -80, 9.66, -37.2, -47.7, -27.8, -18.8, -11.4, -15.1, -32.2, -32.5, -56.4, -45.1, -73, -65.6, -40.4, -47.1, -32.3, -3.93, -9.51, -56.2, -53.6, -60.9, -81.3, -52.1, -63.6, -100, -44.8, -49.7, -49.4, -23, -49.3, -62.8, -56.8, -6.51, -14.6, -76.2, -68, -7.56, -81.4, -46.7, -11.8, -45.3, -18, -9.36, 3.08, -59.4, -68.9, -32.6, -54.3, -21.2, -61.6, -40.5, -49.2, -53.3, -75.5, -55.6, -39.1, -57.7, -83.1, 1.78, -85.5, -37.3 (2×), 10, -27.4, -25.8, -51.6, 3.11, 6.26, 1.51, 1.55% and inactive: 19.1, 13.8, 14.1 (2×), 11.9, 28.5, 15.1, 15, 13.4, 11.7, 26.5, 10.9, 17.5, 14.7, 16.2%"
same,growth,SK-MEL-5 melanoma; runs of 1993,"active: -63.9, -7.58, -14.3, -65.7, -70.1, -58.2, -11.6, 3.16, -44.6, -16.3, -58.6 (2×), -1.49, -48, -84.8 (2×), -30.2, -12.2, -39 (2×), -17.1, -39.6, -31.5, -24.4, -67.6, -54.4, -0.524, -44.7, -46.1, -74.2, -86.1, -42.3, -54.6, -53.6, -55.2, -47.7, -69.4, -43.3, -58.9, -89, -19, -42.2, -86.2, -72.7, -62.4, -30.5% and inactive: 87.4%"
same,growth,SK-MEL-5 melanoma; runs of 1994,"active: -74.3 (2×), -50.2, -50.4, -42.1, -34.4, -59.4, -72.1, -78.4, -54.7, -51.9, -69.7, -61.8, -75.5, -39.7, -38.3, -55.3, -32.8, 0.664, -54.6, -44.5, -11.9, -56, -47.5, -66.9, 0.367, -74, 6.73, -2.37, -22.2, -45.8, -52.3%"
same,growth,SK-MEL-5 melanoma; runs of 1995,"inactive: 10.7%, 14.6% and active: -74, -90.7, -71.1, -56.1, -45.7, -50.7, -17.4, -53.7, -25.4, -53.4, -77.9, -81.4, -70.8, -58.3, -25.2, -82.9, -41, -53.5, -50.6, 3.43, -25.6, -24, 4.21, -57.1, -68.8, -65.3, -4.23, -72.6, -79.2, -65.5, -9.1, -74.6, -89.7, -1.65, -38.7, 4.2, -77.8%"
same,growth,SK-MEL-5 melanoma; runs of 1996,"inactive: 17.6, 62.6, 13, 10.4% and active: 4.85, -83.5, -72, -28, -70.4, -76.7, 1.4, 1.72, -67.8, 7.71, -37, -35.8, -79.8, -87.9, -62.8, -32.4, -49.7, -71.3, -16.4, -17.7, -8.09, -66, -89.4, 2.58, -46.3, 3.38, -17.9, -52.1, -92.9, -64.5, 5.51, 0.304, -33.3, -66.3, -74.3, 0.872, -83.2, -44.4, -60.1, -7.57, -30.6, -44, -15.7, -76.1, -77.3, 7.07, -15.1, 2.34, -15, -42.6, 8.38, -56.9, 1.77%"
same,growth,SK-MEL-5 melanoma; runs of 1997,"active: -39.1, 3.64, 2.8, -3.02, -81.9, -41.9, -42.4, -13.3, 3.06, -52.4, -98.4, -12.6, -61.8, -7.99, -53.1, -24.6, -74.7, -100, -75.8, -15.4, -45.4, -18.5, -37.8, -51, -65.5, -23.1, -8.52, -81.2, -47.1, 4.59% and inactive: 61.9, 13.2, 24.9, 10.8%"
same,growth,SK-MEL-5 melanoma; runs of 1998,"active: -86.8, -54.6, -72.7, 6.02, -7.65, -37.1, -29, -31.3 (2×), -29.3, -3.66, 6.14, -27.3, -30.5, -52, 0.223, -56.6, -56.2, -20, -54.8, -50.5, -59.2, -52.4, -34.2% and inactive: 13.9%"
same,growth,SK-MEL-5 melanoma; runs of 1999,"inactive: 48.4%, 95% and active: -3.18, 4.08, -78.9, -68.5, -100 (2×), -66.2, -70.3, -62.9, -95.9, -80.7, -74.4, -81.1, -69.5, -87.2, -67.1%"
same,growth,SK-MEL-5 melanoma; runs of 2000,"active: -42.1, -51.7, -65.7, -85.8%"
same,growth,UACC-62 melanoma; runs of 1991,"active: -17.4, -21.6, -49.4, -65.5, -62.3, 5.08, -35.8, -79.7, 1.73, -90, -23.6, -56, -82.4, -65.3, -26.2, -45.7, -90.8, -96.6% and inactive: 10.2%"
same,growth,UACC-62 melanoma; runs of 1992,"active: -44.6, -34, -29, -18, -69.3 (2×), -53.1, -80.4, -88.8, -43.3, -45.6, 0.165, 3.38, -9.51, -18.8, -8.28, -40.2 (2×), -67.7, -90.5, -92.5, -11.7, -55.3 (2×), -27.2, -39.4, -59.6, -21.5, -21.4, -28.1, -25.6, -66.1, -38.9, -56.2, -54.5, -73.9, -63.7, -32.9, -82.8, -82, -17.4, -40.6, -17, -9.18, -56.4, -70.5, -22.2, -58.7, -14.3, 0.516, -47.9, -63.2, -30.7, -75.2, -50.3, -34.2, -28.2, -12.2, -11.8, 5.73, -76.2, -69.8 (2×), -59.7, -82.9, -57.4, -83.8, -46.5 (2×), -29.6 (2×), -46.3, -59, -17.7, -31.1, -26.9, -30.2, -72.2, -46.9, -84.4, -69.9, -91.4, -44.1, 7.17, -76, -14.7, -52.6, -60.4, -30.1, -14, -5.16, -61.4, -73.4, -73, -72.4, -13.9, -29.9, -35.8, -50.8, -31.2, -59.3, -58.1, -69, -3.02, -29.5, -24.3, -34.5, -68.3, -19.9, -16.7, -33.3, -30.8, -88.2, -79.6, -20.8, 1.52, -20.1% and inactive: 38.4, 11.1, 89.8, 14.6, 10.6, 65.5, 90.6%"
same,growth,UACC-62 melanoma; runs of 1993,"active: -44, -18.1, -35.6, -34.4, -28.3, -7.93, -31.7, -62.7, -87.7, 6.02, -1.66, 3.86, -16, 4.96, -23.4, -7.25, -68.2, -50, -16.5, -4.18, 2.62, -25.6 (2×), -21.5, -61.1, -2.41, -9.84, -47.3, -5.84, -64, -4.6, -47.6, 7.84, -15.1, -58.1, -6.58, -3.95, -58.6, 7.16, 2.61, -13.6% and inactive: 10, 12.8, 106, 65.8%"
same,growth,UACC-62 melanoma; runs of 1994,"active: -62.7, -1.17, 3.06, -60.7, -60.5, -6.88, -27.8, -65, -35, 0.722, -91.1, -5.39, -85.7, 6.94, -21.7, -80.4, -66.6, -27.3, -14.5, -46.1, 8.66, -72.2, -25.6, 0.456, -12.7, -11.5, 6.4, -36.9, 4.63% and inactive: 24.1%, 13.8%, 20.5%"
same,growth,UACC-62 melanoma; runs of 1995,"inactive: 29.1, 16.8, 27.3, 24.8, 32, 10.7% and active: -55.8, -6.74, -15.8, -7.67, -39.5, 9.52, -21.8, 9.71, 9.15, 2.25, -50.3, -5.14, -60.2, -75.7, -24.4, -67 (2×), -30.4, -20.8, -77, -27.8, 2.84, -25.9, -63.2, 1.05, -52, -19, -13.5, 6.03, 1.55, -36.6, -43.7, -16.3, -50.9, -69.5, -72.1, -77.7, -18.6, -29.2, -55.3, -35, -75.3, -46.8, -33.2, -39, -23.9, -100%"
same,growth,UACC-62 melanoma; runs of 1996,"active: -33.7, -39.9, -42.9, -41.2, 4.38, -73.8, -26.5, -18.4, -32.1, -36.7, -36 (2×), -78.7, -100 (8×), -78.2, -87.7, -26.8, -31.8, -75.7, -38.6, -65.8, -58.3, -68.9 (2×), -99.3, -48.2, -58.7, -26 (2×), -46.9, -6.28, -14.6, -16.8, -42.7, -13.1, -25.1, -41.3, -2.88, -91.9, -85.5, -75.3, -38.7, -16.1, -50, -4.3, -3.31, -18.3, -38, -91.3, -90.6, -69.8, -81.4, -2.78, 4.92, -5.39, 7.1, -61.8, -70.9, -49.7, -39.5, -14.2, -39.3, -66, -29.1, -37.2, -7.08, -18.5, -20.7, -13, -10.4, -7.66, -24.1, -45.5, -27.7, -22.4, 0.236, -9.72, -23.8, -7.29, -54.4, -15.5 (2×), -46.4, -34, -47.1, -2.33, 0.876, -25.3, -39.4, -57.3, -8.02, -5.57, -22.2, -59.4, -50.4, -48.3% and inactive: 102, 117, 51.2, 43.3, 10.2 (2×), 12.9, 10.9, 25.5, 10.7, 88%"

# — PubChem BioAssay (NCI)
